# Laboratory results published in the supplement of paper PMC4604168 (melanoma cell lines).
# The other results are listed elsewhere or left out. Most values come without repeats; read them as rough.
# Key:
# Assay in all cases: cell count relative to DMSO control; melanoma cells; higher = more viable cells
# Conditions in all cases: library dose: low library concentration; 72 h
# [1] = system: WM115
# [2] = system: WM1716
# [3] = system: WM1745
# [4] = system: WM3526
# [5] = system: WM3619
# [6] = system: WM451Lu
# 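Note: cell number obtained by counting DAPI-stained nuclei in high-throughput microscope images with image analysis software, screen run in 1,536-well plates.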
compound,measurement,setting,value
"NC(=O)c1ccc(N(C(N)=O)c2c(F)cccc2F)nc1-c1ccc(F)cc1F + O=C(Nc1ccccc1)c1cc([N+](=O)[O-])ccc1Cl [GW9662] (first compound 0.4 µM, partner dose 2 µM)",cell count,[1],94.2%
same,cell count,[2],108%
same,cell count,[3],76.9%
same,cell count,[4],71.7%
same,cell count,[5],72.6%
same,cell count,[6],88.6%
"NC(=O)c1ccc(N(C(N)=O)c2c(F)cccc2F)nc1-c1ccc(F)cc1F + CC(C)CCN1c2nc(Nc3cc(F)c(O)c(F)c3)ncc2N(C)C(=O)C1C [BID1870] (first compound 0.4 µM, partner dose 0.2 µM)",cell count,[1],101%
same,cell count,[2],116%
same,cell count,[3],103%
same,cell count,[4],97.9%
same,cell count,[5],65.5%
same,cell count,[6],96%
"NC(=O)c1ccc(N(C(N)=O)c2c(F)cccc2F)nc1-c1ccc(F)cc1F + COC(=O)c1sccc1S(=O)(=O)Nc1ccc(Nc2ccccc2)cc1OC [GSK0660] (first compound 0.4 µM, partner dose 1 µM)",cell count,[1],99.5%
same,cell count,[2],115%
same,cell count,[3],93.9%
same,cell count,[4],90.2%
same,cell count,[5],115%
same,cell count,[6],91.1%
"COc1cc2c(Oc3ccc4[nH]c(C)cc4c3F)ncnc2cc1OCCCN1CCCC1 [cediranib] + O=C(O)C(=O)Nc1sc2c(c1C(=O)O)CCNC2 [TCS401] (first compound 0.4 µM, partner dose 1.66667 µM)",cell count,[1],96.5%
same,cell count,[2],112%
same,cell count,[3],93.6%
same,cell count,[4],106%
same,cell count,[5],94.9%
same,cell count,[6],92.2%
"CCCCCCCCc1ccc(CCC(N)(CO)CO)cc1 [fingolimod] + COc1cc(N2CCC(N3CCN(C)CC3)CC2)ccc1Nc1ncc(Cl)c(Nc2ccccc2S(=O)(=O)C(C)C)n1 [NVP-TAE684] (first compound 2 µM, partner dose 0.08 µM)",cell count,[1],92.1%
same,cell count,[2],83.6%
same,cell count,[3],67.6%
same,cell count,[4],66.3%
same,cell count,[5],97.2%
same,cell count,[6],91.2%
"NC(=O)c1ccc(N(C(N)=O)c2c(F)cccc2F)nc1-c1ccc(F)cc1F + CN(c1ncccc1CNc1nc(Nc2ccc3c(c2)CC(=O)N3)ncc1C(F)(F)F)S(C)(=O)=O [PF562271] (first compound 0.4 µM, partner dose 0.08 µM)",cell count,[1],78.4%
same,cell count,[2],82.8%
same,cell count,[3],84.9%
same,cell count,[4],85.9%
same,cell count,[5],89.1%
same,cell count,[6],84.8%
"CCCCCCCCc1ccc(CCC(N)(CO)CO)cc1 [fingolimod] + CNC(=O)c1cc(Oc2ccc(NC(=O)Nc3ccc(Cl)c(C(F)(F)F)c3)cc2)ccn1 [sorafenib] (first compound 2 µM, partner dose 0.4 µM)",cell count,[1],86.9%
same,cell count,[2],72.7%
same,cell count,[3],77.7%
same,cell count,[4],79.7%
same,cell count,[5],109%
same,cell count,[6],104%
"NC(=O)c1ccc(N(C(N)=O)c2c(F)cccc2F)nc1-c1ccc(F)cc1F + CO[C@@H]1[C@H](N(C)C(=O)c2ccccc2)C[C@H]2O[C@]1(C)n1c3ccccc3c3c4c(c5c6ccccc6n2c5c31)C(=O)NC4 [Midostaurin] (first compound 0.4 µM, partner dose 0.08 µM)",cell count,[1],82.8%
same,cell count,[2],78.8%
same,cell count,[3],90.2%
same,cell count,[4],94.3%
same,cell count,[5],108%
same,cell count,[6],108%
"CCCCCCCCc1ccc(CCC(N)(CO)CO)cc1 [fingolimod] + O=C(Nc1cccc(Cl)c1)Nc1ncc(CCNc2ncnc3ccsc23)s1 [SNS314] (first compound 2 µM, partner dose 0.0008 µM)",cell count,[1],76.4%
same,cell count,[2],88.1%
same,cell count,[3],68.6%
same,cell count,[4],95.1%
same,cell count,[5],86.8%
same,cell count,[6],88.6%
"CN(NC(=O)CC(=O)NN(C)C(=S)c1ccccc1)C(=S)c1ccccc1 + O=S(=O)(c1ccccc1)N(CC(F)(F)F)c1ccc(C(O)(C(F)(F)F)C(F)(F)F)cc1 [T0901317] (first compound 0.006 µM, partner dose 1.4 µM)",cell count,[1],74.6%
same,cell count,[2],53.2%
same,cell count,[3],56.6%
same,cell count,[4],84.7%
same,cell count,[5],72.4%
same,cell count,[6],116%
"CCCCCCCCc1ccc(CCC(N)(CO)CO)cc1 [fingolimod] + C[C@@H]1CCN(C(=O)CC#N)C[C@@H]1N(C)c1ncnc2[nH]ccc12 [CP690550] (first compound 2 µM, partner dose 1 µM)",cell count,[1],90.8%
same,cell count,[2],74.9%
same,cell count,[3],78.6%
same,cell count,[4],85%
same,cell count,[5],111%
same,cell count,[6],96.3%
"CN(NC(=O)CC(=O)NN(C)C(=S)c1ccccc1)C(=S)c1ccccc1 + CCc1ccc(CCOc2ccc(CC3SC(=O)NC3=O)cc2)nc1 [pioglitazone] (first compound 0.006 µM, partner dose 2 µM)",cell count,[1],89.3%
same,cell count,[2],78%
same,cell count,[3],57.5%
same,cell count,[4],120%
same,cell count,[5],70.5%
same,cell count,[6],88.9%
